Laboratory results published in the supplement of paper PMC3334620.
Whole data set: some 33,000 sequences, median “E-score (-0.5 to 0.5)” near -0.054, cut for the highest 2% near 0.39. The list shows a part of the results.

Each sequence was assayed against Ylr278c (UniProt Q05854) (assay: PBM E-score (8-mer binding enrichment) (E-score (-0.5 to 0.5)); higher = stronger / more preferred TF binding; most listed sequences are background and not binding sites). Conditions: protein concentration: 200 nM; construct: GST-DNA-binding domain.
Summary of the method: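 Using PURExpress in vitro transcription/translation, GST-tagged yeast transcription factors were made in full-length or DNA-binding-domain form. These were applied at about 100-200 nM to double-stranded universal all-10-mer Agilent arrays, and bound protein was detected with fluorescent anti-GST. Scans were normalised with masliner before the Universal PBM Analysis Suite assigned E-scores to ungapped eight-base words pooled with their reverse complements.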

Sequence | PBM E-score
GAGGCCCA | 0.0293
AGCCCCTA | 0.0295
GAGATCGC | 0.0824
ACGGTGAG | -0.00644
CATCCTGA | -0.0621
CCATGGTA | -0.315
CCCCCAAA | -0.277
TACCGCAA | 0.0363
CCTCTGAG | -0.037
ACACGTTG | -0.313
AGAAACGA | 0.0429
ATGCCCCG | 0.275
ACATCCCC | 0.197
AATCCTCC | 0.163
ACGGCTGA | -0.0822
CCTTCTTC | -0.209
AGCGACAC | -0.182
AACTGTCG | -0.0494
AGCCGACA | 0.0582
CTATCTCC | 0.236
CGGTGATC | 0.234
TGAACGCA | -0.162
AATCTTCG | -0.0054
CAGGTGGG | -0.0242
CAAGATAC | -0.18

Sequence | PBM E-score
ATAAGCAT | -0.127
ATGTATAA | -0.029
ATGGAAGA | -0.207
AAGCGATG | -0.0348
GGAGATTA | 0.249
TGGGCCAA | -0.159
GAAAACAA | 0.0431
ATGTGGGC | -0.11
CATTACGC | 0.159
CGATAGGA | 0.111
ACGGACGG | 0.209
CACAGCTA | -0.29
AATCCCAC | -0.0017
GCTCCAGA | -0.103
CCCCAGCC | -0.121
CGTCGCCC | 0.065
GCCATGCC | 0.0185
GCATTGGA | 0.0238
GAAGGGTA | 0.0363
ATACTAAT | 0.0102
CATAATAC | -0.148
CAGATATG | 0.0911
ATTCTAGC | -0.166
TCAAAGAA | -0.237
GTGGGTTA | -0.177

Sequence | PBM E-score
AGGCTCAC | -0.223
CTTCGGAA | 0.419
GACCCCCC | -0.149
ATACTTCG | 0.0835
AGCATTTC | 0.0338
CACTTAAA | -0.114
TAAAAGCA | -0.00627
AGAATAAT | -0.142
TCTTGGAA | -0.141
AGGCCACC | -0.0852
AAGCGCCG | 0.339
CCAACAAC | -0.112
GATCTTGA | -0.123
GGACGAAA | 0.15
AAAGTTGA | -0.169
CCTCTACA | -0.252
ATGTTTGG | -0.0185
CAGTGTAC | -0.128
TAACAATA | -0.0523
CACAACTA | 0.0612
ATGGTTGA | -0.0616
ACGGCCAC | 0.138
CGCGTGGC | -0.00486
AATTCAGG | 0.127
CTCACAAA | -0.0131

Sequence | PBM E-score
AATCAATG | 0.00091
GGTGCTAA | 0.0327
GTGTGAGA | -0.0203
AATCTACG | 0.0338
AATGTTAG | -0.144
CACAAGCG | -0.124
GCTCCTGA | 0.15
GAGAGAAC | -0.101
ACTGGAAT | -0.075
CGCAGGGC | 0.049
CGGTTGCC | 0.109
CGGAATAG | 0.391
TATCTTCA | -0.0825
CGCACCCC | 0.179
TTAGCCAA | -0.161
TAACAGAA | -0.173
CGTAACGA | -0.128
CGTTCGCA | -0.18
CCGGGTAG | 0.181
ACTGCGGC | 0.126
GCTGGGAA | 0.0943
ATCTCTCA | -0.0439
TAAGTGTA | -0.263
CCTTTATC | 0.00066
CTCCCAGC | -0.0468

Sequence | PBM E-score
TAAGGATA | -0.0608
ATTATTCA | -0.0367
CATTTTGA | -0.194
CGACCCCG | 0.247
CGCTTAAA | 0.00357
AGACTACG | -0.144
GAGGCTCA | -0.184
GCATACAC | -0.122
AAATATAG | -0.0575
CGAGTCTC | -0.0925
CGACCTAA | 0.0918
GTTTATAA | 0.168
ACCCGTGC | -0.0704
CAAGATTG | -0.151
CCTGCAGG | -0.0589
CATAGTCA | -0.287
AGAAGAGG | -0.194
ATAACTAC | 0.0549
CACCCCTC | -0.0449
GCCACCGC | 0.0893
ATCGGTTA | 0.186
GAAGAAAA | 0.0735
CTTTATTC | -0.00152
CCCTGGCC | -0.183
CATAGGAC | -0.146

Sequence | PBM E-score
CAGAACGA | -0.257
AGATCGCC | -0.00696
AGAAACCA | -0.169
GGGGAAAA | 0.132
ATCCTAGC | -0.285
GTTCTACA | -0.219
CGGCTGCA | 0.117
CCCATACA | -0.259
ACCTAAAC | 0.0245
ATGCCTGG | -0.228
GCTACGTA | -0.158
ACTTGCAT | -0.0159
ATTGCAGC | -0.0318
ACAGCGGG | 0.136
AGAGTGTG | -0.174
ACAGTTAG | -0.0328
ACACATAG | -0.262
GACTCGTA | -0.143
CACTATGG | -0.262
CTTTACGC | -0.177
CAATCCAG | -0.0415
CAAAGCGG | 0.175
AGCGTCAT | -0.14
TCTGACAA | -0.223
CCGTTCCA | 0.0158

Sequence | PBM E-score
CGCAACTA | 0.127
AGCTATTA | -0.129
GAGCCTAA | -0.0125
ATAATTCA | -0.0473
GAAGGCGC | -0.0379
CGTTAACG | 0.00213
CAAGAACC | -0.0423
TGCCGTAA | -0.0603
AAAGACCG | 0.277
GAAACTGA | -0.0747
CCGACCTA | 0.192
GCACTCCC | 0.0431
ATCGAGAT | -0.242
CGCCTTGA | -0.0423
TCGGTCAA | 0.0369
CGTCGCTA | -0.0837
ACATAAGT | -0.156
GATTAAGC | 0.229
AAACTTCA | -0.0425
CTCCCCGA | 0.268
CAAATCTG | -0.287
AATTTAGC | 0.0413
